Laboratory results reported in PubChem BioAssay AID624418 (National Center for Advancing Translational Sciences (NCATS), 2012).
Screen size: about 410,000 compounds; about 530 (0.13%) were called active. The shares of active, inactive and inconclusive entries below differ from those in the screen. Calls follow the shape of the dose curve; as a rule, active = well fitted inhibition curve with a large enough effect; inconclusive = small, poorly fitted or top-dose-only effect, or another doubt; inactive = no such curve, though single readings can be large or run the other way. A potency beside an inconclusive call is a rough fit, not a confirmed value.

Test: qHTS of GLP-1 Receptor Inverse Agonists: Cytotox Screen
Details: HEK293 cAMP-luciferase reporter cells, luminescence, 24 h; series mostly up to 38.3 µM
In short: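 Compound-treated cells are incubated 24 hr at 37 deg C under 5% CO2 after a 12 hour attachment period, then luciferase detection reagent is added and luminescence is measured following 12 min at room temperature; lowered signal indicates toxicity.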
Potency is read from the fitted curve at half-maximal effect.

Row | SMILES | Potency
1 | COC(=O)c1ccc(NC(=O)C[n+]2ccccc2)cc1 | inconclusive: 12.6 µM [inhibitor, partial curve, poor fit]
2 | CN1CCN(CC/C=C2/c3ccccc3Sc3ccc(S(=O)(=O)N(C)C)cc32)CC1 | inconclusive: 11.2 µM [inhibitor, single point]
3 | Cc1ccc(-c2ocnc2C(=O)Nc2ccccc2NC(=O)c2ccccn2)cc1 | active: 1.12 µM
4 | CCN(CC(=O)Nc1ccc(NC(C)=O)cc1)C(=O)c1cc2c(s1)CCCCC2 | inconclusive: 0.794 µM [inhibitor, full curve, poor fit]
5 | CCOC(=O)c1c(NC(=O)CCl)sc(C(=O)N(CC)CC)c1C | inconclusive: 10 µM [inhibitor, partial curve, poor fit]
6 | CCCCn1c(N)c(N(CCOC)C(=O)C2CC(=O)N(c3cccc(SC)c3)C2)c(=O)[nH]c1=O (centres undefined) | inactive
7 | CCOc1ccc(-c2nonc2NC(=O)c2oc3ccc(Cl)cc3c2C)cc1 | inconclusive: 0.316 µM [inhibitor, full curve, poor fit]
8 | CC(C)(c1ccccc1)c1ccc(OCCN2CCCC2)cc1 | inconclusive: 28.2 µM [inhibitor, single point]
9 | CCN(CC)CC(O)c1ccc2ccc3ccc(O)cc3c2c1 (centres undefined) | inconclusive: 10 µM [inhibitor, partial curve, poor fit]
10 | CCOC(=O)[C@]12CCCC=C1N(Cc1cccc3ccccc13)C(=O)[C@H](CC(=O)NCC1CCCCC1)C2 | inactive
11 | COc1ccc(/C=C/C(=O)OCC(=O)NC2CCCCCCC2)cc1 | inconclusive: 3.16 µM [inhibitor, partial curve, poor fit]
12 | CCCCCCCCCCCCCCCCCCNc1ccn(C2OC(COP(=O)(O)OCC3OC(n4cc(F)c(=O)[nH]c4=O)CC3O)C(O)C2O)c(=O)n1 (centres undefined) | inconclusive: 8.91 µM [inhibitor, partial curve, poor fit]
13 | COc1ccc(/C=C2\CN(Cc3ccccc3)C/C(=C\c3ccc(OC)c(O)c3)C2=O)cc1O | inconclusive: 8.91 µM [inhibitor, partial curve, poor fit]
14 | OC1(c2cccc(C(F)(F)F)c2)CCN(c2ncnc3c2[nH]c2ccc(F)cc23)CC1 | inconclusive: 25.1 µM [inhibitor, single point]
15 | COc1ccccc1NC(=S)NCCSc1ccc(C)cc1 | inconclusive: 28.2 µM [inhibitor, single point]
16 | COc1ccc(-c2c(=O)n(OCc3ccccn3)c3ccccc3[n+]2[O-])cc1OC | inconclusive: 31.6 µM [inhibitor, single point]
17 | O=[N+]([O-])c1ccc(N=Nc2ccc(O)c3ccccc23)cc1 | inconclusive: 1.78 µM [inhibitor, full curve]
18 | CCn1cc(C2=NC(C)CO2)c2ccccc21 (centres undefined) | inactive
19 | CS(=O)(=O)c1ccc(C(=O)OCC(=O)NC(=O)C2COc3ccccc3O2)cc1[N+](=O)[O-] (centres undefined) | inactive
20 | Cc1ccc(S(=O)(=O)NCC2CCC(C(=O)NCc3ccc4c(c3)OCO4)CC2)cc1 (centres undefined) | inconclusive: 2 µM [inhibitor, full curve, poor fit]

Row | SMILES | Potency
21 | CCOC(=O)c1c(NC(=O)CSc2nc3ccccc3[nH]2)sc2c1CC(C)(C)NC2(C)C | inconclusive: 28.2 µM [inhibitor, single point]
22 | O=C(CNC(=O)CNC(=O)c1ccc(Cl)cc1Cl)NCc1cccc(Cl)c1 | inconclusive: 3.55 µM [inhibitor, full curve, poor fit]
23 | Cc1cc(NC(=O)CSc2nc(-c3cccs3)cc(C(F)(F)F)n2)no1 | inconclusive: 1.26 µM [inhibitor, full curve, poor fit]
24 | COc1ccc(OC)c(NC(=O)c2c(NC(=O)CCC(=O)O)sc3c2CCCCC3)c1 | inconclusive: 8.91 µM [inhibitor, single point]
25 | O=C(CSc1n[nH]c(-c2ccccn2)n1)Nc1ccccc1F | inconclusive: 20 µM [inhibitor, single point]
26 | CC(C)CCNC(=O)c1ccc(Cn2c(=O)c3cccn3c3cccnc32)cc1 | inactive
27 | NC(=S)N=Nc1c(O)n(C2OC(=O)c3ccccc32)c2ccccc12 (centres undefined) | inconclusive: 20 µM [inhibitor, single point]
28 | O=C(Cc1ccc(-c2ccccc2)cc1)NC1CCCC1 | inactive
29 | Cc1ccc(CNC(=O)c2cc(S(=O)(=O)N3CCCC(C)C3)cn2C)cc1 (centres undefined) | inactive
30 | COC(=O)c1cc(C(=O)OC)cc(N2C(=O)CC(Sc3nc(C)cc(C)n3)C2=O)c1 (centres undefined) | inconclusive: 11.2 µM [inhibitor, partial curve]
31 | O=C(c1ccccc1)N(Cc1ccc(F)cc1)Cc1nc2ccccc2c(=O)[nH]1 | inconclusive: 11.2 µM [inhibitor, partial curve, poor fit]
32 | COc1ccc(-c2n[nH]c3c2C(c2ccc(Cl)cc2Cl)NC3=O)cc1 (centres undefined) | inactive
33 | C#CCN(C[C@@H]1[C@@H](OC(=O)NCc2ccco2)[C@@H](OC(=O)NCc2ccco2)Cn2c(=O)ccc(=O)n21)S(=O)(=O)c1ccc(C)cc1 | inconclusive: 28.2 µM [inhibitor, single point]
34 | CCCCC1(C)Cc2ccccc2C(=S)N1 (centres undefined) | inconclusive: 5.62 µM [inhibitor, partial curve, poor fit]
35 | Cc1ccc(S(=O)(=O)Nc2ccc(-c3ccc(N4CCCCCC4)nn3)cc2)cc1C | inactive
36 | CC(=O)NC(=S)Nc1ccc2oc(=O)ccc2c1 | inconclusive: 12.6 µM [inhibitor, single point]
37 | CC(C(=O)NCc1ccc2c(c1)OCO2)c1ccc([N+](=O)[O-])cc1 (centres undefined) | inconclusive: 28.2 µM [inhibitor, single point]
38 | CC(C)NC(=S)N/N=C/C1=CCC2CC1C2(C)C (centres undefined) | inconclusive: 12.6 µM [inhibitor, partial curve, poor fit]
39 | CN(CCO)c1cc(N2CCC3(CC2)OCCO3)c2nonc2c1[N+](=O)[O-] | inconclusive: 7.94 µM [inhibitor, partial curve, poor fit]
